Here are results for six molecules from publication PMC12136788.

First the molecules themselves.
T1: UNK ZnF1-3 (human, UniProt Q9C0B0 31-174)
T1 sequence: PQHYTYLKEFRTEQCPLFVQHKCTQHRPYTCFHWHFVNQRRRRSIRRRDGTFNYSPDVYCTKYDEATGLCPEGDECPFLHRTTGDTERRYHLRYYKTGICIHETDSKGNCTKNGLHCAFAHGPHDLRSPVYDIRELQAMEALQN

B1: chr2:65473824:65473825:+_ENSG00000138071_ENST00000260641|hu_mus|FALSE|FALSE (ssRNA)
RNA: GGGAGUUCUACAGUCCGACGAUCGUUUUUGGUUGGAUUCAUGGGAGGUUCUGUAAGUAAAAUCUUGCAGUUUCUGGUGUCUAUAUUGAGUUUCUCUGGUCCAAAUGUGUAGUCCCACAGGUGCUUCAUGUCAUCCCAAUUCCGCAACAGAGGAUUGAGCAUCA
B2: chr1:39494564:39494565:+_ENSG00000168653_ENST00000372967|hu_hu|hu_hu_hu_mus_True|8_98 (ssRNA)
RNA: GGGAGUUCUACAGUCCGACGAUCAUGCAUUCGCCUCAUCGUUUUCUACCGAAGCAAGCACUCUUCGAAGUCAUCGAACUCUAUCUUGCACUCCUUUUUCGCCCGGGUCCCACCGAUCCCGUGUGCACAUUCUAUCCACUCUUUCAACAGAGGAUUGAGCAUCA
B3: chr5:138658563:138658564:+_ENSG00000015479_ENST00000502499|hu_mus|FALSE|FALSE (ssRNA)
RNA: GGGAGUUCUACAGUCCGACGAUCAUCUUUUUUCACAGCUUUAUCUGAAGGCUCCUUUUUCCCAUCAGAAGAUACAUCCCCUAAAUUAGCAAGAUCGGUCUCAUCGCCCACUGAACUACCACUUUCUAGUAGUGCUGCAGCUUCCAACAGAGGAUUGAGCAUCA
B4: chr9:111175386:111175387:+_ENSMUSG00000046785_ENSMUST00000060711|mus_hu|motif|central (ssRNA)
RNA: GGGAGUUCUACAGUCCGACGAUCUUCCGUUAGUAAAGUCUGAAAUUCAGGUCGCCUAACGCCUCUGGUCUUAAUCAAAACGGUCCAUUCGGAUAUGGUAUUUAUGAUCUGAUUAACAUCUACAUCAUAGGAGCUCAACAGUUCCAACAGAGGAUUGAGCAUCA
B5: 85046632_85048575_835_CDS_ENSMUSG00000024253_ENSMUST00000025101|mouse|control|control (ssRNA)
RNA: GGGAGUUCUACAGUCCGACGAUCGUCAGGAACAGGAGGAGACCCUAUCUGACAUAAAGAAUCCAGUCCUGCUGUGAUAAACAGUGGCUUAUUUUGAUCCACACAUAUUGAUUUGCUUUUAUCAAUACCGAAUGCCAACUGGUUCAACAGAGGAUUGAGCAUCA
B6: 96264416_96274638_1980_CDS_ENSG00000134874_ENST00000376829|human|control|control (ssRNA)
RNA: GGGAGUUCUACAGUCCGACGAUCUAUAUGUGACAGGAGCCGACCCUUCUCUUUCUUGUGUUCUUGAUGAAUAGCUUGAACUCGAGCUGUCCAUUUGCUUUCCUGACUAUCAAGAAGCUGCAUGACAUUAUGGAAAUCCUGGGGCAACAGAGGAUUGAGCAUCA

The other results are listed elsewhere or left out.

The target of this experiment is T1, UNK ZnF1-3. In words: nsRBNS (natural sequence RNA bind-n-seq); RBNS binding buffer (assumed for nsRBNS): 25 mM Tris pH 7.5, 150 mM KCl, 3 mM MgCl2, 0.01% Triton X-100, 500 ug/ml BSA, 20 U/ml SUPERase-In, 4 C; UNK is unkempt and MSI1 is Musashi-1; names of the RNAs are library labels; protein concentration not given here; high values mean tight binding.
Take B1: the binding signal was 0.607 enrichment R.

In turn, B2 displayed a binding signal of 0.62 enrichment R.

The molecule B3 showed a binding signal of 0.856 enrichment R.

Molecule B4 registered a binding signal of 0.701 enrichment R.

Take B5: the binding signal came out at 0.768 enrichment R.

For the molecule B6, the binding signal amounted to 0.724 enrichment R.
